The target of experiment [1] is T1, HA-TAK1 (wild type, from pCMV-HA-wt-TAK1) (UniProt O43318).
T1 sequence: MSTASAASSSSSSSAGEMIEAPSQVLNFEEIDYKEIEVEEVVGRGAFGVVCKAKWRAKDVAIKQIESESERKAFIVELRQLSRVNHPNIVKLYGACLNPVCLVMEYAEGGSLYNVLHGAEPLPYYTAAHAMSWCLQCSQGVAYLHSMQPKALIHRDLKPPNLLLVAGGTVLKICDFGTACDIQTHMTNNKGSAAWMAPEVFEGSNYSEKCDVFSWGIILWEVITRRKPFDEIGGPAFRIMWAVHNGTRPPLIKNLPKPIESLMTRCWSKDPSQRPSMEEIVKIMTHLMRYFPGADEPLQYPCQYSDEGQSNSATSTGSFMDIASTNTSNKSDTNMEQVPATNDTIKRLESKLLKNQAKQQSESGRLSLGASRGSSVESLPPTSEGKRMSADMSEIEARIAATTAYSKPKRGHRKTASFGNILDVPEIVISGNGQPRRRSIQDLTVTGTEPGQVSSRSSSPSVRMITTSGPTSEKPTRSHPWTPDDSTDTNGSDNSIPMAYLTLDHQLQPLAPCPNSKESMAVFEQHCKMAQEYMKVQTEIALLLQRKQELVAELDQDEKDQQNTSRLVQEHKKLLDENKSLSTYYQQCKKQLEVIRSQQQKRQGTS
Kind of experiment: co-IP; HEK293T transfected with HA-wt-TAK1 or K63W-TAK1 alone or together with c-Kit; TAK1-specific immunoprecipitation (protein-G sepharose, lysis buffer with 0,5% NP40), western blot (Figure 6E).

Sequences of proteins named here, by UniProt entry; tags and fusion partners are left off. Residues count along the entry.
UniProt P25911: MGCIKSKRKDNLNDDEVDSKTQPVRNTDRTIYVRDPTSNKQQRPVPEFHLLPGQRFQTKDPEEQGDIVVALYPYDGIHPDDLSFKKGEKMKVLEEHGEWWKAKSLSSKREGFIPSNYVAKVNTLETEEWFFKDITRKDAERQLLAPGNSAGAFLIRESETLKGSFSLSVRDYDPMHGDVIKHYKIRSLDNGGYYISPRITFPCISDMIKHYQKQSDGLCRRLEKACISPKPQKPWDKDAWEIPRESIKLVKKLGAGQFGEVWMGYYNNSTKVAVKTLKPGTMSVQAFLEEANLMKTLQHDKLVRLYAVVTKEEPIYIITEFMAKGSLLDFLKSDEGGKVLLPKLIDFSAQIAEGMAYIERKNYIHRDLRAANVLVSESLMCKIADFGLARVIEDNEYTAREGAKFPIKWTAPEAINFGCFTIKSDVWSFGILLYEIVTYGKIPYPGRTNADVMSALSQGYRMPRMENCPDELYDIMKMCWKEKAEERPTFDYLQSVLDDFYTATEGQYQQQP
UniProt P05532, residues 25-979: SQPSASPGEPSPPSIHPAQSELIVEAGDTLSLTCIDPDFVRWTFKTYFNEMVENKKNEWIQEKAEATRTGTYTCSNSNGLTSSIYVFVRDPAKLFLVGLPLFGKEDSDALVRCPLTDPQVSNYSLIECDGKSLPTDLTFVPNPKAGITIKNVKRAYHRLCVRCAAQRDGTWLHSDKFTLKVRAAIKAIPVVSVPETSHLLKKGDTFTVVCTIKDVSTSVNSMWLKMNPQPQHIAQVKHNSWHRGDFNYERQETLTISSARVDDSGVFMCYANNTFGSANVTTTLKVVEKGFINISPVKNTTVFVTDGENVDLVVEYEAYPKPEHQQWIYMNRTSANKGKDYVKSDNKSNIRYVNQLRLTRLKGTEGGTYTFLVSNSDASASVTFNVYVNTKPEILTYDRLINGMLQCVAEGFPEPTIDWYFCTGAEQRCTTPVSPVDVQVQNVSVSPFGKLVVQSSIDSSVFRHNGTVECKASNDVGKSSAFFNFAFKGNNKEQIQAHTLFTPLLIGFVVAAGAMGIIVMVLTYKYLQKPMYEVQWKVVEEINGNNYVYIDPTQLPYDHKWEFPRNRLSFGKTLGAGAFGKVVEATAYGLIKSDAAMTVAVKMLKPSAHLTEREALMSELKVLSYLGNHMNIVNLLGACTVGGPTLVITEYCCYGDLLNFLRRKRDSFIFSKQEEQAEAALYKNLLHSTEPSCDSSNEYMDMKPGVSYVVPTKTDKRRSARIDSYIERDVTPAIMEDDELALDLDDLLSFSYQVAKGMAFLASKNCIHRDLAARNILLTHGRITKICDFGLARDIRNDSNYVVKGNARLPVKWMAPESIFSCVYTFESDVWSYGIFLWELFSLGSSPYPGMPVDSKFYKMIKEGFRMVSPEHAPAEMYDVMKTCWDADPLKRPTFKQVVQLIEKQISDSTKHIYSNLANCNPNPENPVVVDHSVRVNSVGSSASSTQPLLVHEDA
UniProt P10721, residues 26-976: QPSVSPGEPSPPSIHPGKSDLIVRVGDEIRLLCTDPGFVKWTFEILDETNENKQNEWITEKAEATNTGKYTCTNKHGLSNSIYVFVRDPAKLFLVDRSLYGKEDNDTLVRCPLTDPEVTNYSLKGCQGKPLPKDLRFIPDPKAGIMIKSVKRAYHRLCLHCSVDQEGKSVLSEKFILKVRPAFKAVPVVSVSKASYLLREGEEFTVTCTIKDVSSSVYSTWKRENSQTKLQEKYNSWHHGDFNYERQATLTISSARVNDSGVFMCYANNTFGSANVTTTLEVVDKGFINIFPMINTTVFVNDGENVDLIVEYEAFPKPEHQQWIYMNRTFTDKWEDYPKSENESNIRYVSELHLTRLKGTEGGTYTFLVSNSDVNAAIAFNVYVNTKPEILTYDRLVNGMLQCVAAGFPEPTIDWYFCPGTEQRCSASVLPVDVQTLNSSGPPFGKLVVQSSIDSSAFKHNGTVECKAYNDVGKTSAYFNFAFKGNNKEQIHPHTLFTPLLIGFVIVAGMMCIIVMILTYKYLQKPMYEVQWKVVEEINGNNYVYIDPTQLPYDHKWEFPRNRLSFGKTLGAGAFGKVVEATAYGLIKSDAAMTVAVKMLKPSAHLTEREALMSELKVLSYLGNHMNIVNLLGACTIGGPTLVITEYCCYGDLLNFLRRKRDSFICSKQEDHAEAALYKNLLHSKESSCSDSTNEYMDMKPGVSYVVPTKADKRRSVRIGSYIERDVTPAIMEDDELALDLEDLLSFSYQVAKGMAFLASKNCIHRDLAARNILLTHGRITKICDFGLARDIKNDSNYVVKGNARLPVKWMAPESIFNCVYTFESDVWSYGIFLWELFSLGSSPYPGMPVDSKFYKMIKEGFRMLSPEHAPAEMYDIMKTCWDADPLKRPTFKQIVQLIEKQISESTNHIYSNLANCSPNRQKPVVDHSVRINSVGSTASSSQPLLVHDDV

In experiment [2] the target is T2, HA-K63W-TAK1 (inactive K63W-TAK1 mutant, from pCMV-HA-K63W-TAK1) (UniProt O43318).
T2 sequence: T1 sequence with K63W
Described as above.

Experiment [3] addresses Lyn (endogenous in bone marrow-derived mast cells) (mouse (endogenous in BMMCs)) (UniProt P25911). The experiment in a line: co-IP; lysates of SCF-stimulated (50 ng/ml) BMMCs; Lyn-specific immunoprecipitation (protein-G sepharose, lysis buffer with 0,5% NP40), western blot (Figure 6C, 6D). (In general: In western blotting, separated proteins are transferred to a membrane and probed.)

Experiment [4] has as its target c-Kit (endogenous in bone marrow-derived mast cells) (mouse (endogenous in BMMCs)) (UniProt P05532). Kind of experiment: co-IP; lysates of SCF-stimulated (50 ng/ml) BMMCs; c-Kit-specific immunoprecipitation (protein-G sepharose, lysis buffer with 0,5% NP40), western blot (Figure 6B).
Experiment [5] deals with T3, HA-TAK1 (wild type, from pCMV-HA-wt-TAK1), O43318.
T3 chain: T1 sequence
The experiment in a line: co-IP; HEK293T transfected with HA-wt-TAK1 or K63W-TAK1 alone or together with c-Kit; TAK1-specific immunoprecipitation (protein-G sepharose, lysis buffer with 0,5% NP40), western blot (Figure 6E). Particulars: remark: other sources report otherwise.

Where a chain is given by its changes, count along the chain named. No constants are given. Whether binding was seen depends on the method and setting. In cells and extracts the contact can be indirect. Some binding calls cover weakened binding; strength is not graded here. For some assays here: Where a sequence is shown, tags or fusion partners need not be part of it.

The record followed here is article PMC4745695.

Take “c-Kit (overexpressed wt c-Kit from pcDNA3.1-c-Kit) (from UniProt P10721 26-976) (receptor)”: the binding entry in experiment [1] is “binds”; in experiment [2] it was “no binding”.
For “c-Kit (endogenous in bone marrow-derived mast cells) (from UniProt P05532 25-979) (receptor)”, in experiment [3], the binding result is recorded as “binds”.

B1: TAK1 (endogenous in bone marrow-derived mast cells) (enzyme, UniProt Q62073 1-579)
chain: MSTASAASSSSSSSASEMIEAPSQVLNFEEIDYKEIEVEEVVGRGAFGVVCKAKWRAKDVAIKQIESESERKAFIVELRQLSRVNHPNIVKLYGACLNPVCLVMEYAEGGSLYNVLHGAEPLPYYTAAHAMSWCLQCSQGVAYLHSMQPKALIHRDLKPPNLLLVAGGTVLKICDFGTACDIQTHMTNNKGSAAWMAPEVFEGSNYSEKCDVFSWGIILWEVITRRKPFDEIGGPAFRIMWAVHNGTRPPLIKNLPKPIESLMTRCWSKDPSQRPSMEEIVKIMTHLMRYFPGADEPLQYPCQYSDEGQSNSATSTGSFMDIASTNTSNKSDTNMEQVPATNDTIKRLESKLLKNQAKQQSESGRLSLGASRGSSVESLPPTSEGKRMSADMSEIEARIVATAGNGQPRRRSIQDLTVTGTEPGQVSSRSSSPSVRMITTSGPTSEKPARSHPWTPDDSTDTNGSDNSIPMAYLTLDHQLQPLAPCPNSKESMAVFEQHCKMAQEYMKVQTEIALLLQRKQELVAELDQDEKDQQNTSRLVQEHKKLLDENKSLSTYYQQCKKQLEVIRSQQQKRQGTS
With B1, the binding result in experiment [3] and in experiment [4] was “binds” in each case.

B2: IKK2 (endogenous in bone marrow-derived mast cells) (enzyme, UniProt O88351 1-757)
chain: MSWSPSLPTQTCGAWEMKERLGTGGFGNVIRWHNQATGEQIAIKQCRQELSPKNRNRWCLEIQIMRRLNHPNVVAARDVPEGMQNLAPNDLPLLAMEYCQGGDLRRYLNQFENCCGLREGAVLTLLSDIASALRYLHENRIIHRDLKPENIVLQQGEKRLIHKIIDLGYAKELDQGSLCTSFVGTLQYLAPELLEQQKYTVTVDYWSFGTLAFECITGFRPFLPNWQPVQWHSKVRQKSEVDIVVSEDLNGAVKFSSSLPFPNNLNSVLAERLEKWLQLMLMWHPRQRGTDPQYGPNGCFRALDDILNLKLVHVLNMVTGTVHTYPVTEDESLQSLKTRIQENTGILETDQELLQKAGLVLLPDKPATQCISDSKTNEGLTLDMDLVFLLDNSKINYETQITPRPPPESVSCILQEPKRNLSFFQLRKVWGQVWHSIQTLKEDCNRLQQGQRAAMMSLLRNNSCLSKMKNAMASTAQQLKAKLDFFKTSIQIDLEKYKEQTEFGITSDKLLLAWREMEQAVEQCGRENDVKHLVERMMALQTDIVDLQRSPMGRKQGGTLDDLEEQARELYRKLREKPRDQRTEGDSQEMVRLLLQAIQSFEKKVRVIYTQLSKTVVCKQKALELLPKVEEVVSLMNEDERTVVRLQEKRQKELWNLLKIACSKVRGPVSGSPDSMNVSRLSHPGQLMSQPSSACDSLPESDKKSEELVAEAHALCSRLESALQDTVKEQDRSFTTLDWSWLQMEDEERCSLEQACD
For B2, the binding result in experiment [3] was “no binding”.

B3: IKK2 (endogenous in HEK293T cells), O14920 1-756 (enzyme)
chain: MSWSPSLTTQTCGAWEMKERLGTGGFGNVIRWHNQETGEQIAIKQCRQELSPRNRERWCLEIQIMRRLTHPNVVAARDVPEGMQNLAPNDLPLLAMEYCQGGDLRKYLNQFENCCGLREGAILTLLSDIASALRYLHENRIIHRDLKPENIVLQQGEQRLIHKIIDLGYAKELDQGSLCTSFVGTLQYLAPELLEQQKYTVTVDYWSFGTLAFECITGFRPFLPNWQPVQWHSKVRQKSEVDIVVSEDLNGTVKFSSSLPYPNNLNSVLAERLEKWLQLMLMWHPRQRGTDPTYGPNGCFKALDDILNLKLVHILNMVTGTIHTYPVTEDESLQSLKARIQQDTGIPEEDQELLQEAGLALIPDKPATQCISDGKLNEGHTLDMDLVFLFDNSKITYETQISPRPQPESVSCILQEPKRNLAFFQLRKVWGQVWHSIQTLKEDCNRLQQGQRAAMMNLLRNNSCLSKMKNSMASMSQQLKAKLDFFKTSIQIDLEKYSEQTEFGITSDKLLLAWREMEQAVELCGRENEVKLLVERMMALQTDIVDLQRSPMGRKQGGTLDDLEEQARELYRRLREKPRDQRTEGDSQEMVRLLLQAIQSFEKKVRVIYTQLSKTVVCKQKALELLPKVEEVVSLMNEDEKTVVRLQEKRQKELWNLLKIACSKVRGPVSGSPDSMNASRLSQPGQLMSQPSTASNSLPEPAKKSEELVAEAHNLCTLLENAIQDTVREQDQSFTALDWSWLQTEEEEHSCLEQAS
Take B3: the binding entry in experiment [5] is “binds”.

B4: IKK2 (endogenous in HEK293T cells) (enzyme, UniProt O14920 1-756)
chain: B3 chain
On to B4, for which the binding result in experiment [2] was “no binding”.
